Measurements: the supplement of paper PMC4604168 (melanoma cell lines)
The other results are listed elsewhere or left out. Single values are uncertain, as repeats are few or missing.

Test system: WM115
Experiment: cell count relative to DMSO control; melanoma cells; higher = more viable cells
Conditions: library dose: low library concentration; 72 h
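Further: cell number obtained by counting DAPI-stained nuclei in high-throughput microscope images with image analysis software, screen run in 1,536-well plates.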

Row | Compound | cell count
1 | NC(=O)Nc1cc(-c2cccc(F)c2)sc1C(=O)N[C@H]1CCCNC1 + CC(C)CCN1c2nc(Nc3cc(F)c(O)c(F)c3)ncc2N(C)C(=O)C1C [BID1870] (first compound 0.02 µM, partner dose 0.2 µM) | 96.8%
2 | CN(C)S(=O)(=O)c1ccc2c(c1)/C(=C/c1cc3c([nH]1)CCCC3)C(=O)N2 + O=C(O)c1ccc(-c2c[nH]c3ncc(-c4ccccc4)cc23)cc1C1CCCC1 [GSK650394] (first compound 0.4 µM, partner dose 0.16 µM) | 84.3%
3 | Cc1nc(Nc2ncc(C(=O)Nc3c(C)cccc3Cl)s2)cc(N2CCN(CCO)CC2)n1 [dasatanib] + O=C(Nc1cccc(Cl)c1)Nc1ncc(CCNc2ncnc3ccsc23)s1 [SNS314] (first compound 0.004 µM, partner dose 0.0008 µM) | 53.5%
4 | CN(C)S(=O)(=O)c1ccc2c(c1)/C(=C/c1cc3c([nH]1)CCCC3)C(=O)N2 + COc1cc2ncnc(Nc3ccc(Oc4ccccc4)cc3)c2cc1OC [SrcI1] (first compound 0.4 µM, partner dose 2 µM) | 78.5%
5 | C=CCn1c(=O)c2cnc(Nc3ccc(N4CCN(C)CC4)cc3)nc2n1-c1cccc(C(C)(C)O)n1 + N#Cc1c(O)c2c(-c3ccc(-c4ccccc4O)cc3)csc2[nH]c1=O [A769662] (first compound 0.02 µM, partner dose 2 µM) | 83.7%
6 | CN(C)S(=O)(=O)c1ccc2c(c1)/C(=C/c1cc3c([nH]1)CCCC3)C(=O)N2 + Cn1cc(/C=C2\C(=O)Nc3cccnc32)c2ccccc21 [GW441756] (first compound 0.4 µM, partner dose 0.4 µM) | 82.5%
7 | NCC(=O)Nc1ccc(-n2nc(C(F)(F)F)cc2-c2ccc3c(ccc4ccccc43)c2)cc1 + CN(NC(=O)CC(=O)NN(C)C(=S)c1ccccc1)C(=S)c1ccccc1 [STA4783] (first compound 1 µM, partner dose 0.006 µM) | 85.9%
8 | OCCn1cc(-c2cnc3nnn(Cc4ccc5ncccc5c4)c3n2)cn1 + COc1ccc(-c2ccc3c(N4CCOCC4)nc(N4C[C@@H](C)O[C@@H](C)C4)nc3n2)cc1CO [KU0063794] (first compound 1 µM, partner dose 0.02 µM) | 95.6%
9 | Cc1nc(Nc2ncc(C(=O)Nc3c(C)cccc3Cl)s2)cc(N2CCN(CCO)CC2)n1 [dasatanib] + Cc1ccc(NC(=O)c2cccc(N(C)C)c2)cc1NC(=O)c1ccc(O)cc1 [ZM336372] (first compound 0.004 µM, partner dose 2 µM) | 82.5%
10 | CO[C@@H]1[C@H](N(C)C(=O)c2ccccc2)C[C@H]2O[C@]1(C)n1c3ccccc3c3c4c(c5c6ccccc6n2c5c31)C(=O)NC4 [Midostaurin] + CC(C)(C)c1cnc(CSc2cnc(NC(=O)C3CCNCC3)s2)o1 [SNS-032] (first compound 0.08 µM, partner dose 0.01 µM) | 80.5%
11 | C[C@]1(c2nc3c(C(N)=O)cccc3[nH]2)CCCN1 [Veliparib] + COc1ccc(-c2ccc3c(N4CCOCC4)nc(N4C[C@@H](C)O[C@@H](C)C4)nc3n2)cc1CO [KU0063794] (first compound 1.4 µM, partner dose 0.02 µM) | 80.6%
12 | C[C@]1(c2nc3c(C(N)=O)cccc3[nH]2)CCCN1 [Veliparib] + NCC(=O)Nc1ccc(-n2nc(C(F)(F)F)cc2-c2ccc3c(ccc4ccccc43)c2)cc1 [OSU03012] (first compound 1.4 µM, partner dose 1 µM) | 85.4%
13 | Cc1nc(Nc2ncc(C(=O)Nc3c(C)cccc3Cl)s2)cc(N2CCN(CCO)CC2)n1 [dasatanib] + COc1ccc(-c2ccc3c(N4CCOCC4)nc(N4C[C@@H](C)O[C@@H](C)C4)nc3n2)cc1CO [KU0063794] (first compound 0.004 µM, partner dose 0.02 µM) | 73%
14 | Cc1nc(Nc2ncc(C(=O)Nc3c(C)cccc3Cl)s2)cc(N2CCN(CCO)CC2)n1 [dasatanib] + O=S(=O)(c1ccccc1)N(CC(F)(F)F)c1ccc(C(O)(C(F)(F)F)C(F)(F)F)cc1 [T0901317] (first compound 0.004 µM, partner dose 1.4 µM) | 67.1%
15 | NC(=O)Nc1cc(-c2cccc(F)c2)sc1C(=O)N[C@H]1CCCNC1 + COc1ccc(COc2ccc(Cc3cnc(N)nc3N)cc2OC)cc1 [GW2580] (first compound 0.02 µM, partner dose 1 µM) | 96.2%
16 | NC(=O)Nc1cc(-c2cccc(F)c2)sc1C(=O)N[C@H]1CCCNC1 + O=C(Nc1ccccc1)c1cc([N+](=O)[O-])ccc1Cl [GW9662] (first compound 0.02 µM, partner dose 2 µM) | 90.1%

Row | Compound | cell count
17 | C[C@]1(c2nc3c(C(N)=O)cccc3[nH]2)CCCN1 [Veliparib] + CCc1ccc(CCOc2ccc(CC3SC(=O)NC3=O)cc2)nc1 [pioglitazone] (first compound 1.4 µM, partner dose 2 µM) | 79.9%
18 | OCCn1cc(-c2cnc3nnn(Cc4ccc5ncccc5c4)c3n2)cn1 + COc1ccc2c(c1)CCC1C2CCC2(C)C(NCCCCCCN3C(=O)C=CC3=O)CCC12 [U73122] (first compound 1 µM, partner dose 0.4 µM) | 98.8%
19 | Cc1nc(Nc2ncc(C(=O)Nc3c(C)cccc3Cl)s2)cc(N2CCN(CCO)CC2)n1 [dasatanib] + O=C(O)C(=O)Nc1sc2c(c1C(=O)O)CCNC2 [TCS401] (first compound 0.004 µM, partner dose 1.66667 µM) | 68.5%
20 | NCC(=O)Nc1ccc(-n2nc(C(F)(F)F)cc2-c2ccc3c(ccc4ccccc43)c2)cc1 + O=C1NC(=O)/C(=C/c2ccc(-c3ccc(F)cc3O)o2)S1 [AS252424] (first compound 1 µM, partner dose 1 µM) | 103%
21 | CO[C@@H]1[C@H](N(C)C(=O)c2ccccc2)C[C@H]2O[C@]1(C)n1c3ccccc3c3c4c(c5c6ccccc6n2c5c31)C(=O)NC4 [Midostaurin] + CN(C)S(=O)(=O)c1ccc2c(c1)/C(=C/c1cc3c([nH]1)CCCC3)C(=O)N2 [SU6656] (first compound 0.08 µM, partner dose 0.4 µM) | 56.1%
22 | C[C@]1(c2nc3c(C(N)=O)cccc3[nH]2)CCCN1 [Veliparib] + O=C(O)C(=O)Nc1sc2c(c1C(=O)O)CCNC2 [TCS401] (first compound 1.4 µM, partner dose 1.66667 µM) | 85.6%
23 | CO[C@@H]1[C@H](N(C)C(=O)c2ccccc2)C[C@H]2O[C@]1(C)n1c3ccccc3c3c4c(c5c6ccccc6n2c5c31)C(=O)NC4 [Midostaurin] + COc1cc2ncnc(Nc3ccc(Oc4ccccc4)cc3)c2cc1OC [SrcI1] (first compound 0.08 µM, partner dose 2 µM) | 87.7%
24 | C[C@]1(c2nc3c(C(N)=O)cccc3[nH]2)CCCN1 [Veliparib] + Oc1cc(-c2nc(-c3ccccc3)[nH]c2-c2ccncc2)ccc1Cl [L779450] (first compound 1.4 µM, partner dose 0.2 µM) | 69.7%
25 | CO[C@@H]1[C@H](N(C)C(=O)c2ccccc2)C[C@H]2O[C@]1(C)n1c3ccccc3c3c4c(c5c6ccccc6n2c5c31)C(=O)NC4 [Midostaurin] + Cc1cc(N2CCOCC2)cc2[nH]c(-c3c(NC[C@@H](O)c4cccc(Cl)c4)cc[nH]c3=O)nc12 [BMS536924] (first compound 0.08 µM, partner dose 0.2 µM) | 86.8%
26 | C[C@]1(c2nc3c(C(N)=O)cccc3[nH]2)CCCN1 [Veliparib] + O=C(CCCCCCC(=O)Nc1ccccc1)NO [vorinostat] (first compound 1.4 µM, partner dose 0.08 µM) | 82.9%
27 | Cc1nc(Nc2ncc(C(=O)Nc3c(C)cccc3Cl)s2)cc(N2CCN(CCO)CC2)n1 [dasatanib] + Cc1cc([N+](=O)[O-])ccc1NS(=O)(=O)c1cc(Cl)ccc1Cl [FH535] (first compound 0.004 µM, partner dose 1 µM) | 68.7%
28 | CO[C@@H]1[C@H](N(C)C(=O)c2ccccc2)C[C@H]2O[C@]1(C)n1c3ccccc3c3c4c(c5c6ccccc6n2c5c31)C(=O)NC4 [Midostaurin] + O=C(O)C(=O)Nc1sc2c(c1C(=O)O)CCNC2 [TCS401] (first compound 0.08 µM, partner dose 1.66667 µM) | 97.6%
29 | C[C@]1(c2nc3c(C(N)=O)cccc3[nH]2)CCCN1 [Veliparib] + OCCn1cc(-c2cnc3nnn(Cc4ccc5ncccc5c4)c3n2)cn1 [PF04217903] (first compound 1.4 µM, partner dose 1 µM) | 90.7%
30 | CO[C@@H]1[C@H](N(C)C(=O)c2ccccc2)C[C@H]2O[C@]1(C)n1c3ccccc3c3c4c(c5c6ccccc6n2c5c31)C(=O)NC4 [Midostaurin] + CN(NC(=O)CC(=O)NN(C)C(=S)c1ccccc1)C(=S)c1ccccc1 [STA4783] (first compound 0.08 µM, partner dose 0.006 µM) | 82.3%
31 | NC(=O)Nc1cc(-c2cccc(F)c2)sc1C(=O)N[C@H]1CCCNC1 + CCc1ccc(CCOc2ccc(CC3SC(=O)NC3=O)cc2)nc1 [pioglitazone] (first compound 0.02 µM, partner dose 2 µM) | 96.7%
